Results published in paper PMC9721059.
These are yes or no findings as the source states them, for the method shown. Binding seen in cells or lysates may run through a third protein. Some entries that bind do so weakly or less than the wild type. For some assays here: Sequences can lack the tags named with a protein. Each block holds one molecule with its values, some of them ahead of it.

By UniProt entry, the sequences of proteins in these tests, tags left out. Where a name states a change or a piece, a line headed by the entry shows the natural chain unless it says otherwise.
UniProt Q9BPZ7: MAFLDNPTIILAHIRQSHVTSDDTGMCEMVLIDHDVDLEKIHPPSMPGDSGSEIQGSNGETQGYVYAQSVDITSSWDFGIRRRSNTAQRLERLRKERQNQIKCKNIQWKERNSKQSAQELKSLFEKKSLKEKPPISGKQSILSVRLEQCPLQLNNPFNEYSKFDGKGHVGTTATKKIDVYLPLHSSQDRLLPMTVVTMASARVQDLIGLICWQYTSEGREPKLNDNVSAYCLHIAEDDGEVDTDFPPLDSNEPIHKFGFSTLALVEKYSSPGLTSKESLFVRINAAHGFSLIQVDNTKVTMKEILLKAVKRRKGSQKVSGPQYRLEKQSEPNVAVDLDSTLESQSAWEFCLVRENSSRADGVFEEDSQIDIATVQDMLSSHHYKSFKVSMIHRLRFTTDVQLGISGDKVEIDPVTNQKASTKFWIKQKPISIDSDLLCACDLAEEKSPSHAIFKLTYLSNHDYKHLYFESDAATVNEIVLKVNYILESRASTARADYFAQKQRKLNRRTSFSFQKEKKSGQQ
UniProt Q13620: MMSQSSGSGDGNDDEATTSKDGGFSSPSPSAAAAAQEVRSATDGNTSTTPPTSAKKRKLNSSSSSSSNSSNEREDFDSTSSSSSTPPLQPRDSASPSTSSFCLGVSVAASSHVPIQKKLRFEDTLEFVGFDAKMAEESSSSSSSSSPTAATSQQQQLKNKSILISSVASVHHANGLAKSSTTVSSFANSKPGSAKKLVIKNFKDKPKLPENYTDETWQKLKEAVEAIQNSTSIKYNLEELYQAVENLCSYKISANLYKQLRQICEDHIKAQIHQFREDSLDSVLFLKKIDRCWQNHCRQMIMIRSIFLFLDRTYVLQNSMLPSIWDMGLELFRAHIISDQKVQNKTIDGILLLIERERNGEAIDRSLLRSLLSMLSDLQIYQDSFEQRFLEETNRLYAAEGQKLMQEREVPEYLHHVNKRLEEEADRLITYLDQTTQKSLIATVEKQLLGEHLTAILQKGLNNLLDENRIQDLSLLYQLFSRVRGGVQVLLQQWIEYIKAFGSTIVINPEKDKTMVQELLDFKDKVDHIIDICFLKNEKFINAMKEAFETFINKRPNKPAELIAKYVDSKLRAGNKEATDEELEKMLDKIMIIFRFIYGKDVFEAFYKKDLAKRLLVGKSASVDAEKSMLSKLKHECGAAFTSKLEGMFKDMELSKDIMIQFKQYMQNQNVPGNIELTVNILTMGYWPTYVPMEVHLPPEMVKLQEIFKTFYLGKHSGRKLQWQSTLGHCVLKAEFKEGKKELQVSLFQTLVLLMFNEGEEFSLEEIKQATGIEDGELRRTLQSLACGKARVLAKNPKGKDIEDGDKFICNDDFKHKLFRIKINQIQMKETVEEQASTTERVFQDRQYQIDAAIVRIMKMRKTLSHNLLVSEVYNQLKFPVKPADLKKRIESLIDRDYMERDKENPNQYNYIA

Experiments:
[1] = target: SIN1 (stress-activated protein kinase (SAPK)-interacting protein 1), endogenous in TPC-1 cells (human (endogenous in TPC-1)) (UniProt Q9BPZ7); assay: co-IP; endogenous proteins in TPC-1 cells; Mg132 (20 uM) added 6 h before harvest; 2 ug antibody overnight, protein A/G beads, three washes, western blot
[2] = target: SIN1, tagged, ectopically expressed from a pCMV vector (UniProt Q9BPZ7); assay: co-IP; ectopically expressed SIN1 and CUL4B (Fig. 5B); cells, tags and antibody not told for this panel
[3] = target: SIN1, tagged, ectopically expressed from a pCMV vector (UniProt Q9BPZ7); assay: co-IP; 293T cells transfected with the indicated plasmids (SIN1, CUL4B, with or without AURKA); His-IP, western blot; Mg132 (20 uM) added 6 h before harvest
[4] = target: T1, AURKA-Flag (Aurora kinase A), expressed from a pCMV vector in 293T cells (UniProt O14965); assay: co-IP; transfection-IP in 293T cells with SIN1 truncations (N, CRIM, RBD, PH); Mg132 (20 uM) added 6 h before harvest; western blot
T1 sequence: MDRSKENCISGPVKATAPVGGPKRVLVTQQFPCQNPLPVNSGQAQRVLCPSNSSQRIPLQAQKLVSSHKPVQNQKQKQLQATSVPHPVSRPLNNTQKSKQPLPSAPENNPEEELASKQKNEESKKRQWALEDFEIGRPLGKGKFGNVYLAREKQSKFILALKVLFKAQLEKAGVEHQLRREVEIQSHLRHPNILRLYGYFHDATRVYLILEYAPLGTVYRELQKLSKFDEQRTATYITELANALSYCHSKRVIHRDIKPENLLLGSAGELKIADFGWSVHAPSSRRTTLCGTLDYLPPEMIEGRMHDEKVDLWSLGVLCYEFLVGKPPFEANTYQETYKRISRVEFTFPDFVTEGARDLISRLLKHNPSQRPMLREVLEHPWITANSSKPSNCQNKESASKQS

Molecule: CUL4B (Cullin4B), endogenous in TPC-1 cells (from UniProt Q13620 1-913)
binding [1]: binds

Molecule: CUL4B (Cullin4B), tagged, ectopically expressed from a pCMV vector (from UniProt Q13620 1-913)
binding [2]: binds | binding [3]: binds

Now from value to molecule:

binding [4]: no binding
Molecule: SIN1 truncation CRIM (from UniProt Q9BPZ7 139-267) (domain or fragment)

binding [3]: binds
B1: AURKA-Flag (Aurora kinase A), expressed from a pCMV vector in 293T cells (enzyme, UniProt O14965 1-403)
chain: MDRSKENCISGPVKATAPVGGPKRVLVTQQFPCQNPLPVNSGQAQRVLCPSNSSQRIPLQAQKLVSSHKPVQNQKQKQLQATSVPHPVSRPLNNTQKSKQPLPSAPENNPEEELASKQKNEESKKRQWALEDFEIGRPLGKGKFGNVYLAREKQSKFILALKVLFKAQLEKAGVEHQLRREVEIQSHLRHPNILRLYGYFHDATRVYLILEYAPLGTVYRELQKLSKFDEQRTATYITELANALSYCHSKRVIHRDIKPENLLLGSAGELKIADFGWSVHAPSSRRTTLCGTLDYLPPEMIEGRMHDEKVDLWSLGVLCYEFLVGKPPFEANTYQETYKRISRVEFTFPDFVTEGARDLISRLLKHNPSQRPMLREVLEHPWITANSSKPSNCQNKESASKQS
